Results: paper PMC4336329 (PLoS ONE, 2015)
Hit rate of the full screen: of about 310,000 compounds, about 2,200 (0.71%) showed an effect of 50% or more. The effect is printed as a negative number. This is one part of the list.

Target: human ether-à-go-go-related gene (hERG) potassium channel (human, UniProt Q12809)
Assay: primary screen, population patch clamp on CHO cells stably expressing hERG

Sequence of human ether-à-go-go-related gene (hERG) potassium channel (Q12809 whole entry, looked up): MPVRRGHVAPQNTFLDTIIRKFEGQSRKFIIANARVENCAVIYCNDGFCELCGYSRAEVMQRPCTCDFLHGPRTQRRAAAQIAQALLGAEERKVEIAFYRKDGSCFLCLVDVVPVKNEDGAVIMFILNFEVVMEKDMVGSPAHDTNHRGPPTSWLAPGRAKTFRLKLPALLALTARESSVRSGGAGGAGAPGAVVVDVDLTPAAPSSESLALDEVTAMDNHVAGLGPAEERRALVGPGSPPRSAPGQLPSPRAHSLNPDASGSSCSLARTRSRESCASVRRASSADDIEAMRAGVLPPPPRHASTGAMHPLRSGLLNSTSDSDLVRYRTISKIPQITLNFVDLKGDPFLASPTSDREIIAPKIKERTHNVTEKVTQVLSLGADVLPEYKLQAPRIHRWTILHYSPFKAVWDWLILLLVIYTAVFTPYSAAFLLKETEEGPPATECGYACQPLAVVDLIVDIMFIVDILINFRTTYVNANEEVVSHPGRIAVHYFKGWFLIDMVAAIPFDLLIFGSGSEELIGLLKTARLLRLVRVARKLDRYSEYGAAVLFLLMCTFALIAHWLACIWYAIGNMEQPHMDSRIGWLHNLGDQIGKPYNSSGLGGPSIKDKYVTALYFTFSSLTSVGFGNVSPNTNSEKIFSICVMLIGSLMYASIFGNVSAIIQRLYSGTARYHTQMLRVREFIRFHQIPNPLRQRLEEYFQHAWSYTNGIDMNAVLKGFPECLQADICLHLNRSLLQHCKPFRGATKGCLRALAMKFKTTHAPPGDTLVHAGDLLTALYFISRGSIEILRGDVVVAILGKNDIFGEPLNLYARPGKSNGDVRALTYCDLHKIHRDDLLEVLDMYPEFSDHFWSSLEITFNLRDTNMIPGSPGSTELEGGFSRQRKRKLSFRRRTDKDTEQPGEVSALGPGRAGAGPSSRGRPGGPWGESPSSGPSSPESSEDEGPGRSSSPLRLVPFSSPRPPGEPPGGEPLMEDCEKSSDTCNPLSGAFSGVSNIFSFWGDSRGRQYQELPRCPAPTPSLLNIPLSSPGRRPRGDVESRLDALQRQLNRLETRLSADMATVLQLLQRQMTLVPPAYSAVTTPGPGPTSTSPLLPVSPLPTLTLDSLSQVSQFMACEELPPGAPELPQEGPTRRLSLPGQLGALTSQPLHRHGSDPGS

| Compound | hERG current change (%, negative = inhibition) at 1uM [%] |
| --- | --- |
| CCOC(=O)C1CCCN(C(=O)c2cc(Nc3ccc(OC)cc3OC)nc3ccccc23)C1 (stereo not shown) | 0.882 |
| O=C(CCCOc1ccc(Cl)cc1Cl)N/N=C/c1ccccc1 | 11 |
| COc1ccc(NC(=O)CCS(=O)(=O)c2ccc3c(c2)CCCN3C(C)=O)cc1 | 0.571 |
| O=C(CC1C(=O)NCCN1Cc1ccc(-c2ccccc2)cc1)NCCCn1cccn1 (stereo not shown) | 7.28 |
| O=c1cc(-c2ccccc2Cl)oc2c(NS(=O)(=O)c3ccccc3OC(F)(F)F)ccc(O)c12 | 5 |
| Cc1c(N(C(=O)c2ccccn2)C2(C(=O)NC3CCCCC3)CCCCC2)c(=O)n(-c2ccccc2)n1C | 0.566 |
| C[n+]1ccc(/C=C/c2c[nH]c3ccc(F)cc23)cc1.[I-] | 8.21 |
| CCCCNc1ccc2nsnc2c1[N+](=O)[O-] | 4.7 |
| CN(C)S(=O)(=O)c1ccc(C(=O)Nc2cc3c(cc2C(=O)O)OCCCO3)cc1 | 8.36 |
| CC(C)(C)c1cc[n+](/C(C(=S)NC2CC2)=C(/[O-])c2ccc(Cl)s2)cc1 | -20.6 |
| Cn1cccc1CNC(=O)Nc1ccc(Cl)cc1 | -16.8 |
| Cc1cc(NC(=O)c2c([N+](=O)[O-])cnn2C)no1 | 9.91 |
| O=C(CN1C(=O)c2ccccc2S1(=O)=O)Nc1ccc(S(=O)(=O)N2CCCC2)cc1 | -1.28 |
| Cc1no[n+]([O-])c1COc1ccc(/C=C2\NC(=S)NC2=O)cc1 | 2.21 |
| COc1ccccc1NC(=O)Cn1cnc2c(cnn2-c2ccccc2)c1=O | 7.99 |
| CCOC(=O)c1c(NC(=O)Cn2nc(C(=O)O)c3ccccc3c2=O)sc2c1CCC(C)C2 (stereo not shown) | 12.4 |
| COc1ccccc1NC(=O)CSc1ccc(-c2ccc(-n3cccn3)cc2)nn1 | 12.5 |
| O=C(NCCCO)C(=O)NCc1ccccn1 | 11.6 |
| Cc1onc(-c2c(F)cccc2Cl)c1C(=O)c1ccccc1O | 6.42 |
| CC(=O)N(Cc1ccccc1)Cc1nc2sc(C)c(C)c2c(=O)[nH]1 | 10.4 |
| Cn1c2c(c(=O)n(C)c1=O)C(NS(=O)(=O)c1ccccc1)(C(F)(F)F)C(=O)N2 (stereo not shown) | 12.9 |
| CC(=O)c1cc2c(cc1NS(=O)(=O)c1cccc(C(=O)O)c1)OCO2 | 17 |

| Compound | hERG current change (%, negative = inhibition) at 1uM [%] |
| --- | --- |
| CC1CCCC/C1=N\NS(=O)(=O)c1ccc(Br)cc1 (stereo not shown) | 6.85 |
| CCOC(=O)c1cn[nH]c1N | 10.1 |
| COc1ccc(CCNC(=O)C2CC(=O)N(c3ccc(C)cc3)C2)cc1OC (stereo not shown) | 8.45 |
| CCC(C)c1ccccc1N1CC(C(=O)NCCc2ccc(OC)c(OC)c2)CC1=O (stereo not shown) | 8.81 |
| CC1=C(C(=O)NC2CCC(C)CC2)C2(CCC(C)CC2)OC1=O (stereo not shown) | 10.3 |
| CCc1cccc2c(C(=O)Cn3nnc(-c4ccc(OC)c(OC)c4)n3)c[nH]c12 | 5.3 |
| COc1ccc(C(=O)C2CCCN(C(=O)c3n[nH]c4c3CCCC4)C2)cc1OC (stereo not shown) | 19.2 |
| Cc1cc(C)c(N(C(=O)c2csnn2)C(C(=O)NC2CCCC2)c2ccncc2)c(C)c1 (stereo not shown) | 10.4 |
| COc1ccc(CCC(=O)Nc2cc([N+](=O)[O-])ccc2OC)cc1 | 8.26 |
| CN1CCN(CC(=O)Nc2cc(S(=O)(=O)N3CCOCC3)ccc2Cl)CC1 | 15.2 |
| Cc1cc(C)cc(Oc2ccc(NC(=O)C3CC=CCC3C(=O)O)cc2)c1 (stereo not shown) | 18.2 |
| CC(=O)c1cccc(NC(=O)c2cnn3ccccc23)c1 | 6.99 |
| Cc1cc(C)c2c(-n3cccc3)n[nH]c2n1 | 12.1 |
| C#CC[N+]1(C)C2CCC1CC(O)C2.[Br-] (stereo not shown) | 9.88 |
| Cc1ccc(C)c(N2CCN(C(=O)c3ccc(Cn4c(=O)[nH]c5ccccc5c4=O)cc3)CC2)c1 | 11.6 |
| CN(C)S(=O)(=O)c1cccc(NC(=O)COc2ccc(C(=O)c3ccccc3)cc2)c1 | -6.39 |
| COc1ncccc1C(=O)NCC(CC(=O)O)c1ccccc1 (stereo not shown) | 10.5 |
| CC1CC(C)CN(C(=O)Cc2c(C(=O)O)[nH]c3ccc(Cl)cc23)C1 (stereo not shown) | 0.92 |
| CCCCNC(=O)C1CCC(CNS(=O)(=O)c2c(C)cc(C)cc2C)CC1 (stereo not shown) | -13.4 |
| CC1(c2ccccc2Cl)NC(=O)N(CC(=O)NC(=O)NCc2ccco2)C1=O (stereo not shown) | 8.12 |
| Cc1sc(-n2cccc2)c(C(=O)O)c1C | 15 |
| CCCN(Cc1nnc(-c2ccccc2Cl)o1)C(=O)c1cccc(S(=O)(=O)N2CCOCC2)c1 | 7.59 |

| Compound | hERG current change (%, negative = inhibition) at 1uM [%] |
| --- | --- |
| Cc1ccc(-c2nn(-c3ccccc3)cc2/C=C2\SC(=S)N(CC(=O)O)C2=O)cc1 | 0.664 |
| CCCCN(CC)C(=O)C1CCCN(S(=O)(=O)c2cccc3nsnc23)C1 (stereo not shown) | 13.4 |
| CC(C)CCOc1cccc(OCC(=O)Nc2ccncc2)c1 | 19.1 |
| CCOP(=O)(OCC)C(NC(=O)c1ccc(OC)c(OC)c1)c1ccccc1 (stereo not shown) | 12.2 |
| CCCC(=O)Nc1ccccc1NC(=O)c1ccc(OCC)c(OCC)c1 | 10.7 |
| CCOC(=O)C1=C(CC)Nc2ccccc2N=C1NC(=O)c1oc2ccccc2c1C | 13.3 |
| CCCOc1ccc(/C=C/C(=O)Nc2ccc([N+](=O)[O-])cc2C)cc1 | 7.64 |
| CCOC(=O)c1nnn2c1nc(N(CC)CC)c1ccccc12 | 6.76 |
| CCOC(CCn1c(SCc2cccc([N+](=O)[O-])c2)nc2ccccc2c1=O)OCC | -1.04 |
| Nc1ccccc1Nc1c(F)c(F)nc(F)c1Cl | 17.2 |
| O=C(CSc1ccc(-c2ccc(Cl)cc2)nn1)Nc1ccc2c(c1)OCCO2 | 16.7 |
| Cc1ccc(C(=O)NNC(=O)CSc2nnc3c(n2)[nH]c2ccc(C)cc23)cc1 | 6.24 |
| CC(=O)NC(=O)c1cnn(-c2ccccc2)c1N | 10.1 |
| O=C(c1cccc(S(=O)(=O)N2CCOCC2)c1)N1CCN(c2ccc(F)cc2)CC1 | -3.96 |
| C/C(N)=C(\C#N)C(=O)NCc1ccccn1 | 10.9 |
| Cc1ccc(/C=C2\SC(=S)N(C(Cc3ccccc3)C(=O)O)C2=O)cc1 (stereo not shown) | 12.3 |
| CCCOC(=O)C1=C(C)N(C)C(=O)NC1c1cc2c(cc1[N+](=O)[O-])OCO2 (stereo not shown) | 15.6 |
| Cc1ccc(NC(=O)c2ccc(Cl)c(NC(=O)c3cccs3)c2)cc1 | 5.42 |
| C[C@@H]1NC(=O)[C@H](CCC(N)=O)NC(=O)c2cc([N+](=O)[O-])cc(I)c2NCCC[C@@H](C(N)=O)NC1=O | -10 |
| c1ccc2c(c1)nnn2-c1ncnc2sccc12 | 4.42 |
| COC(=O)C1=C(C)N(CCCC(=O)O)C(=O)NC1c1ccccc1OS(=O)(=O)c1ccc([N+](=O)[O-])cc1 (stereo not shown) | 13.6 |
| COc1ccc(C2C(C(=O)O)c3ccccc3C(=O)N2Cc2ccco2)cc1 (stereo not shown) | 11.5 |

| Compound | hERG current change (%, negative = inhibition) at 1uM [%] |
| --- | --- |
| CCCCNc1nc2c(c(=O)[nH]c(=O)n2C)n1CCOc1ccccc1 | 5.77 |
| O=C(NCc1ccccc1)C(c1ccncc1)N(C(=O)c1ccccn1)c1ccccc1 (stereo not shown) | 14.8 |
| COc1ccc2ccc(O)c(CN3CC=C(c4ccccc4)CC3)c2c1 | 22.2 |
| Br.Cc1ccc(C)c(C2=CSC3=NCCN23)c1 | -1.3 |
| Cc1nn(C)cc1C1C2=C(CC(C)(C)CC2=O)OC2=C1C(=O)CC(C)(C)C2 | -9.73 |
| OCC[C@H]1C[C@H](O)[C@@H](O)[C@]2(Cc3ccccc3O2)O1 | -16 |
| CSCCC1(C(=O)O)NC(c2ccccc2O)C2C(=O)N(C(C)C)C(=O)C21 (stereo not shown) | 20.3 |
| Cc1ccc(-c2nc(N/N=C/c3ccccc3[N+](=O)[O-])c3ccccc3n2)cc1 | 3.57 |
| COc1ccc(C(=O)NN2C(=O)C3C(c4ccccc4)C=CC(c4ccccc4)C3C2=O)cc1 (stereo not shown) | 5.2 |
| Cc1cccc(Cn2cc(C=O)c3ccccc32)c1 | 13.3 |
| CC(=O)Nc1ccc(S(=O)(=O)Nc2nc3ccccc3nc2Cl)cc1 | 4.91 |
| COc1ccccc1-n1cnnc1SCC(=O)Nc1cc(C(C)(C)C)nn1-c1ccccc1 | 3.78 |
| O=C(/C=C/c1ccc(F)cc1)N1CCN(Cc2ccccc2)CC1 | -1.21 |
| CCCNS(=O)(=O)c1ccc(OCC(=O)NCc2ccco2)cc1 | -22.4 |
| COc1ccc(C(c2nnnn2CS(=O)(=O)c2ccc(C)cc2)N2CCN(c3ncccn3)CC2)cc1 (stereo not shown) | 0.618 |
| Cc1cc(=O)cc(C)n1-c1ccc2c(c1)nc(C)n2-c1ccccc1 | 5.37 |
| CCCc1cc(=O)oc2cc(Oc3ncccn3)ccc12 | -5.6 |
| COc1ccc(S(=O)(=O)NCc2ccc(C(=O)N3CCc4ccccc4C3)cc2)cc1 | 7.79 |
| C=CCNc1nc(Cl)nc(Nc2ccc(OCC)cc2)n1 | 8.51 |
